Assay results published in PubChem BioAssay AID588855 (National Center for Advancing Translational Sciences (NCATS), 2011).
“And” between values parts separate entries of the source, which are not always exact repeats. Equal entries are not always repeated. The whole screen tested about 410,000 compounds, of which about 5,000 (1.2%) were called active. This list was built around the results that the source calls inconclusive (neither active nor inactive); the mix of calls is not that of the screen. Calls follow the shape of the dose curve; as a rule, active = well fitted inhibition curve with a large enough effect; inconclusive = small, poorly fitted or top-dose-only effect; inactive = no such curve, though single readings can be large or run the other way. Potencies beside an inconclusive call are fits to weak or partial responses and may not hold up.

Test: qHTS for Inhibitors of TGF-b; also: nearly all actives have a fitted effect of over 65% in size
Details: HepG2 CAGA-GFP TGF-b/SMAD3 reporter, GFP fluorescence, 18 h, TGF-beta stimulated, 500 pg/mL final; series mostly up to 46.1 µM; activity, negative = inhibition: at the top concentration
In short: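 Cell-based qHTS in HEPG2 carrying a CAGA-GFP Smad reporter; compounds added before 500 pg/mL final TGF-beta, 18 h incubation at 37 degrees C, GFP fluorescence quantified per cell by imaging cytometry.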
% is scaled to controls: 0 for no effect and ±100 for the full control effect; potency is read from the fitted curve at half-maximal effect; tags tell the direction and shape of the fitted curve.

SMILES	Potency	activity, negative = inhibition
O=[N+]([O-])c1cc(C(F)(F)F)cc([N+](=O)[O-])c1NCCNC(=S)Nc1cccc(F)c1	active: 11.2 µM	–
CCN(CC)CCCN(Cc1cc2ccc(C)c(C)c2[nH]c1=O)C(=O)NC1CCCCC1	–	inactive: 21.6%
Cc1ccccc1OCc1nc2ccccc2c(=O)n1/N=C/c1cn[nH]c1-c1ccccc1	inconclusive: 22.4 µM [inhibitor, single point]	–
CCN(CC)C(=O)CC(c1ccc2c(c1)OCO2)c1c(OC)cc(OC)c2c(-c3ccccc3)cc(=O)oc12 (stereo not given)	inconclusive: 22.4 µM [inhibitor, single point] and inconclusive: 14.1 µM [inhibitor, partial curve, poor fit]	–
COc1ccc(-c2nc(CSCC(=O)N3CCN(c4cc(Cl)ccc4C)CC3)c(C)o2)cc1	active: 17.8 µM	–
Cc1cc(OCC(=O)NCC(c2cccs2)N2CCOCC2)ccc1C(C)C (stereo not given)	inconclusive: 35.5 µM [inhibitor, single point]	–
Cc1ccc(-n2c(SCC(=O)Nc3cccc(S(=O)(=O)NC4=NCCCCC4)c3)nc3ccccc3c2=O)cc1	inconclusive: 22.4 µM [inhibitor, single point]	–
CC(=O)N1CCc2cc(S(=O)(=O)CCC(=O)Nc3ccc(C)cc3Br)ccc21	inconclusive: 11.2 µM [inhibitor, single point]	–
Cc1ccc(Cn2c(C)c3cnn(CC(=O)NCc4ccccc4)c(=O)c3c2C)cc1	inconclusive: 15.8 µM [inhibitor, single point]	–
CCOc1ccc(CCNC(=O)CS(=O)(=O)Cc2nc(-c3ccc(OC)cc3)oc2C)cc1	inconclusive: 3.16 µM [inhibitor, full curve, poor fit]	–
COc1cccc(OCCn2cc(C=O)c3ccccc32)c1	active: 3.55 µM	–
Cc1cccc2sc(NC(=O)c3ccc(Cl)s3)nc12	inconclusive: 35.5 µM [inhibitor, single point]	–
COc1cc2c(NC3CCN(C)CC3)nc(N3CCCN(C)CC3)nc2cc1OCCCCCN	inconclusive: 25.1 µM [inhibitor, single point]	–
Cc1cc(C)c(C#N)c(SCS(=O)Cc2ccccc2)n1 (stereo not given)	inconclusive: 15.8 µM [inhibitor, partial curve, poor fit]	–
CCOc1ccc(N2CC(c3nc4ccccc4n3CCOc3ccccc3OC)CC2=O)cc1 (stereo not given)	inconclusive: 35.5 µM [inhibitor, single point]	–
CNC(=O)c1ccsc1NC(=O)CCS(=O)(=O)c1ccc(Cl)cc1	inconclusive: 22.4 µM [inhibitor, partial curve, poor fit]	–
Cc1ccc(NCc2n[nH]c(=S)n2Cc2ccccc2)cc1Cl	inconclusive: 17.8 µM [inhibitor, single point]	–
O=C(Nc1ccccc1Cc1ccccc1)c1ccccc1NS(=O)(=O)c1ccc(Cl)s1	active: 4.47 µM	–
Cn1nnnc1Sc1ncnc2scc(-c3ccccc3Br)c12	inconclusive: 25.1 µM [inhibitor, single point]	–
COc1ccc(C(NC=O)c2cc(OC)c(OC)cc2Br)cc1OC (stereo not given)	–	inactive: -5.68%
CCc1ccc(CNc2ccc3c(c2)ncn3C(C)(C)C)cc1	inconclusive: 22.4 µM [inhibitor, single point]	–
Cc1cccc(NS(=O)(=O)c2ccc3c(c2)CC(C)N3C(=O)C2CCC2)c1C (stereo not given)	inconclusive: 11.2 µM [inhibitor, partial curve, poor fit]	–

SMILES	Potency	activity, negative = inhibition
O=C(Nc1nnc(SCc2cccnc2)s1)C1CC(=O)N(c2ccccc2)C1 (stereo not given)	inconclusive: 6.31 µM [inhibitor, single point]	–
CC(C)Oc1ccc(-c2nc(-c3cccnc3)no2)cc1	–	inactive: 27.7%
Cc1ccc(-c2ccc(=O)n(CCC(=O)N3CCN(c4cccc(C)c4)C(C)C3)n2)cc1 (stereo not given)	inconclusive: 8.91 µM [inhibitor, partial curve]	–
CCc1nnc(NC(=O)C2c3ccccc3Oc3ccccc32)s1	–	inactive: -11.5%
Cc1ccc(CNC(=O)C(C)n2nc(C)n3c(cc4sccc43)c2=O)cc1 (stereo not given)	inconclusive: 11.2 µM [inhibitor, single point]	–
COc1ccc(CN2C(=O)CN(C3CCCCCC3)C(=O)C2c2ccc(F)cc2)cc1 (stereo not given)	–	inactive: -10.2%
Cc1cc(C)cc(CC(=O)N2CCC2(C)C(=O)NS(=O)(=O)c2ccc(C#N)cc2)c1 (stereo not given)	–	inactive: -7.53%
CCCn1nnc(NC(=S)NC(=O)/C=C/c2ccco2)n1	–	inactive: -7.36%
COc1ccc(NC(=O)Cc2cccc(F)c2)cc1S(=O)(=O)Nc1ccccc1Cl	inconclusive: 17.8 µM [inhibitor, single point]	–
COc1ccc(-c2c(-c3cc(OC)cc(OC)c3)n(C)c3ccc(-c4ccc5[nH]ccc5c4)cc23)cc1	–	inactive: 2.62%
O=C(CCCN1C(=O)c2cccc3cccc(c23)C1=O)N1CCc2ccccc2C1	inconclusive: 35.5 µM [inhibitor, single point]	–
COC(=O)c1ccc2c(=O)n(CCCCCC(=O)NCCc3ccc(Cl)cc3)c(=O)[nH]c2c1	inconclusive: 0.794 µM [inhibitor, full curve]	–
CCNc1ccc(C(=O)O)cc1N	inconclusive: 5.62 µM [inhibitor, single point]	–
CC(=O)c1c(C)[nH]c(C(=O)OCc2nc3ccsc3c(=O)[nH]2)c1C	inconclusive: 10 µM [inhibitor, partial curve]	–
CC(=O)Nc1cccc(OCc2cccc([N+](=O)[O-])c2)c1	–	inactive: -18.6%
CC1CCN(CCOCCOc2ccccc2-c2ccccc2)CC1	–	inactive: -12.1%
Cc1ccc(C)c(NC(=O)C(Sc2nnc(-c3cccs3)o2)c2ccccc2)c1 (stereo not given)	–	inactive: -6.26%
COc1ccc(NC(=O)CCc2c(C)nn(-c3ccc(N4CCCCC4)nn3)c2C)cc1Cl	inconclusive: 0.447 µM [inhibitor, full curve, poor fit]	–
CCn1c(C(=O)N2CCC(C(=O)NCCc3ccc(C)cc3)CC2)cc2sccc21	inconclusive: 28.2 µM [inhibitor, single point]	–
CCOc1ccc(C(C)=O)cc1CSc1nc2nc(C)cc(C)n2n1	inconclusive: 1.78 µM [inhibitor, partial curve, poor fit]	–
CCn1c(=N)c(C(=O)NCc2ccccc2)cc2c(=O)n3cccc(C)c3nc21	inconclusive: 5.62 µM [inhibitor, single point]	–
Cc1[nH]nc2c1C(C1CC=CCC1)C(C#N)=C(N)O2 (stereo not given)	inconclusive: 22.4 µM [inhibitor, single point]	–

SMILES	Potency	activity, negative = inhibition
O=S(=O)(NCc1c(Cl)cccc1Oc1ccccc1)c1ccc(F)cc1	active: 11.2 µM	–
O=C(/C=C/c1c(Cl)cccc1Cl)n1cccn1	inconclusive: 22.4 µM [inhibitor, single point]	–
Cc1ccc(-c2nc(CS(=O)(=O)CC(=O)NC3CCC(C)CC3)c(C)o2)cc1 (stereo not given)	inconclusive: 14.1 µM [inhibitor, partial curve, poor fit]	–
CC(C)c1ccc(C2NC(=O)c3n[nH]c(-c4cccs4)c32)cc1 (stereo not given)	inconclusive: 22.4 µM [inhibitor, single point]	–
COc1ccc(Cl)cc1S(=O)(=O)NCc1ccc2c(c1)CCN2C(=O)c1cccc(C)c1	inconclusive: 35.5 µM [inhibitor, single point]	–
Cc1ccc(C(C)C)c(OCC(O)CN2CCN(c3ccccc3F)CC2)c1 (stereo not given)	active: 15.8 µM	–
O=C(c1ccc(Cl)cc1Cl)c1ncc(C(F)(F)F)cc1Cl	inconclusive: 8.91 µM [inhibitor, partial curve]	–
CCOc1ccc(CCNC(=O)CN2C(=O)COc3ccc(S(=O)(=O)N4CCCC4)cc32)cc1	inconclusive: 35.5 µM [inhibitor, single point]	–
CC1(C)CC2(CC(c3ccccc3)Oc3cc(O)ccc32)NC(=S)N1 (stereo not given)	inconclusive: 35.5 µM [inhibitor, single point]	–
COc1ccc(-c2noc(CSc3nc(N)c(-c4ccccc4)c(=O)[nH]3)n2)cc1	inconclusive: 12.6 µM [inhibitor, single point]	–
O=C(O)/C(=C\c1ccc(F)cc1)c1ccc(-c2ccccc2)cc1	inconclusive: 0.794 µM [inhibitor, full curve, poor fit]	–
O=C1C=C(c2ccc3[nH]ccc3c2)C[C@@H](c2ccc(Cl)cc2)C1	active: 11.2 µM	–
C(=C\c1ccccc1)/CSc1nnc(-c2ccccn2)n1Cc1ccco1	inconclusive: 20 µM [inhibitor, single point]	–
Cc1ccccc1Oc1nnc(-c2cccs2)c2ccccc12	inconclusive: 35.5 µM [inhibitor, single point]	–
Cc1ccc(Nc2nc(N)c([N+](=O)[O-])c(NCCO)n2)cc1	inconclusive: 14.1 µM [inhibitor, single point]	–
CCCCCCCCCCCCCCCC[n+]1cccc(C(=O)N(CC)CC)c1	inconclusive: 22.4 µM [inhibitor, partial curve, poor fit] and inconclusive: 25.1 µM [inhibitor, single point]	–
COc1ccc(CN2C(=O)CNC2=S)cc1	–	inactive: 0%
O=C(COc1ccccc1)NCC(=O)N/N=C/c1ccc(O)cc1O	inconclusive: 35.5 µM [inhibitor, single point]	–
Cc1ccc(CNC(=O)c2cc3c(=O)n(Cc4ccco4)ccc3nc2C)cc1	inconclusive: 35.5 µM [inhibitor, single point]	–
COc1ccc(CN(C)C(=O)C23CC4CC(CC(Cl)(C4)C2)C3)c(OC)c1OC	–	inactive: -16.8%
O=C(Cc1ccc(Cl)cc1)Nc1cccc(S(=O)(=O)N2CCCCC2)c1	inconclusive: 35.5 µM [inhibitor, single point]	–
